The Ki is the equilibrium dissociation constant of an inhibitor or competing ligand from its target.

Structures can show the parent of a compound that is named as a salt.

This experiment deals with PCP receptor. As to the kind of experiment: PCP receptor radioligand binding assay ([3H]MK-801, rat brain membranes). The following applies: read-out: [3H-MK801] Ki (head printed "Kj"); derived from the IC50 values as described by Cheng et al.
Turning to `CCc1cccc(NC(=N)Nc2cccc(Cl)c2)c1` [Compd. No. 3 (Table I)], the inhibition constant Ki turned out to be 112 nM.

`CCc1cccc(NC(=N)Nc2cc(C(F)(F)F)ccc2Br)c1` [Compd. No. 4 (Table I), N-(3-Ethylphenyl)-N'-(2-bromo-5-trifluoromethylphenyl)guanidine hydrochloride]: the inhibition constant Ki stood at 66.8 nM.

As to `CCc1cccc(NC(=N)Nc2cc(C(F)(F)F)ccc2Cl)c1` [Compd. No. 6 (Table I), N-(3-Ethylphenyl)-N'-(2-chloro-5-trifluoromethylphenyl)guanidine hydrochloride], the inhibitory constant (Ki) was determined as 43.9 nM.

Take `CCc1cccc(NC(=N)Nc2cc(C)ccc2Cl)c1` [Compd. No. 7 (Table I), N-(3-Ethylphenyl)-N'-(2-chloro-5-methylphenyl)guanidine hydrochloride]: the Ki is 76.9 nM.

For the molecule `CCc1cccc(NC(=N)Nc2cc(CC)ccc2Cl)c1` [Compd. No. 8 (Table I), N-(3-Ethylphenyl)-N'-(2-chloro-5-ethylphenyl)guanidine hydrochloride], the inhibitory constant (Ki) amounted to 34.7 nM.

Consider `CCc1cccc(NC(=N)Nc2cccc(CC)c2)c1` [Compd. No. 9 (Table I)], for which the inhibition constant Ki worked out at 129 nM.

With `CCc1cccc(N(C)C(=N)Nc2cc(Cl)ccc2Cl)c1` [Compd. No. 10 (Table I), N-(3-ethylphenyl)-N-methyl-N'-(2,5-dichlorophenyl)guanidine hydrochloride], the inhibitory constant (Ki) stood at 65 nM.

In the case of `CCc1cccc(N(C)C(=N)Nc2cc(Br)ccc2Br)c1` [Compd. No. 11 (Table I), N-(3-ethylphenyl)-N-methyl-N'-(2,5-dibromophenyl)guanidine hydrochloride], the Ki worked out at 36.6 nM.

As to `CCc1cccc(N(C)C(=N)Nc2cccc(Cl)c2)c1` [Compd. No. 12 (Table I)], the Ki came out at 497 nM.

Take `CCc1cccc(N(C)C(=N)Nc2cc(C(F)(F)F)ccc2Br)c1` [Compd. No. 13 (Table I), N-(3-Ethylphenyl)-N-methyl-N'-(2-bromo-5-trifluoromethylphenyl)guanidine hydrochloride]: the inhibition constant (Ki) is 78.4 nM.

As for `CCc1cccc(N(C)C(=N)Nc2cc(C(F)(F)F)ccc2F)c1` [Compd. No. 14 (Table I), N-(3-Ethylphenyl)-N-methyl-N'-(2-fluoro-5-trifluoromethylphenyl)guanidine hydrochloride], the inhibitory constant (Ki) turned out to be 194 nM.

As to `CCc1cccc(N(C)C(=N)Nc2cc(C(F)(F)F)ccc2Cl)c1` [Compd. No. 15 (Table I), N-(3-Ethylphenyl)-N-methyl-N'-(2-chloro-5-trifluoromethylphenyl)guanidine hydrochloride], the Ki was determined as 101 nM.

For the molecule `CCc1cccc(N(C)C(=N)Nc2cc(CC)ccc2Cl)c1` [Compd. No. 17 (Table I), N-(3-Ethylphenyl)-N-methyl-N'-(2-chloro-5-ethylphenyl)guanidine hydrochloride], the inhibitory constant (Ki) stood at 40.7 nM.

Consider `CCc1cccc(N(C)C(=N)Nc2cccc(Br)c2)c1` [Compd. No. 19 (Table I)], for which the Ki was 80.7 nM.

In the case of `CCc1cccc(N(C)C(=N)Nc2cc(CC)ccc2F)c1` [Compd. No. 20 (Table I), N-(3-Ethylphenyl)-N-methyl-N'-(2-fluoro-5-ethylphenyl)guanidine hydrochloride], the inhibitory constant (Ki) is 98.9 nM.

In the case of `CCc1cccc(NC(=N)Nc2cc(CC)ccc2F)c1` [Compd. No. 21 (Table I), N-(3-Ethylphenyl)-N'-(2-fluoro-5-ethylphenyl)guanidine hydrochloride], the inhibition constant (Ki) turned out to be 49.8 nM.

Consider `CCc1cccc(N(C)C(=N)Nc2cc(CC)ccc2Br)c1` [Compd. No. 22 (Table I), N-(3-Ethylphenyl)-N-methyl-N'-(2-bromo-5-ethylphenyl)guanidine hydrochloride], for which the Ki amounted to 12.8 nM.

Take `CCc1cccc(NC(=N)Nc2cc(CC)ccc2Br)c1` [Compd. No. 23 (Table I), N-(3-Ethylphenyl)-N'-(2-bromo-5-ethylphenyl)guanidine hydrochloride]: the Ki was 24.9 nM.

`CCc1cccc(N(C)C(=N)Nc2cc(SC)ccc2Cl)c1` [Compd. No. 24 (Table I), N-13-Ethylphenyl)-N-methyl-N'-(2-chloro-5-methylthiophenyl)guanidine hydrochloride]: the inhibition constant Ki was determined as 5.1 nM.

In the case of `CCc1cccc(NC(=N)Nc2cc(SC)ccc2Cl)c1` [Compd. No. 25 (Table I), N-(3-Ethylphenyl)-N'-(2-chloro-5-methylthiophenyl)guanidine hydrochloride], the Ki was 11.8 nM.

Consider `CCc1cccc(N(C)C(=N)N(C)c2cc(Cl)ccc2Cl)c1` [Compd. No. 26 (Table I), N-(3-Ethylphenyl)-N-methyl-N'-(2,5-dichlorophenyl)-N'-methylguanidine hydrochloride], for which the inhibition constant (Ki) came out at 72 nM.

Consider `CCc1cccc(N(C)C(=N)N(C)c2cc(Br)ccc2Br)c1` [Compd. No. 27 (Table I), N-(3-Ethylphenyl)-N-methyl-N'-(2,5-dibromophenyl)-N'-methylguanidine hydrochloride], for which the inhibitory constant (Ki) worked out at 27.3 nM.

On to `CCc1cccc(N(C)C(=N)N(C)c2cc(CC)ccc2Cl)c1` [Compd. No. 28 (Table I), N-(3-Ethylphenyl)-N-methyl-N'-(2-chloro-5-ethylphenyl)-N'-methylguanidine hydrochloride], for which the Ki stood at 112 nM.

On to `CCc1ccc(Cl)c(NC(=N)Nc2cc(C)ccc2Cl)c1` [Compd. No. 29 (Table I)], for which the Ki stood at 42.1 nM.

On to `N=C(Nc1cc(Cl)ccc1Cl)Nc1cccc2ccccc12` [Compd. No. 31 (Table I), N-(1-naphthyl)-N'-(2,5-dichlorophenyl)guanidine], for which the Ki was determined as 31.5 nM.

`N=C(Nc1cc(Br)ccc1Br)Nc1cccc2ccccc12` [Compd. No. 32 (Table I), N-(1-Naphthyl)-N'-(2,5-dibromophenyl)guanidine hydrochloride]: the inhibitory constant (Ki) is 37.3 nM.

For the molecule `Cc1ccc(C)c(NC(=N)Nc2cccc3ccccc23)c1` [Compd. No. 33 (Table I), N-(1-Naphthyl)-N'-(2,5-dimethylphenyl)guanidine hydrochloride], the Ki came out at 60.9 nM.

Take `Cc1cccc(NC(=N)Nc2cccc3ccccc23)c1` [Compd. No. 38 (Table I)]: the Ki amounted to 148 nM.

As to `N=C(Nc1cc(C(F)(F)F)ccc1F)Nc1cccc2ccccc12` [Compd. No. 39 (Table I), N-(1-Naphthyl)-N'-(2-fluoro-5-trifluoromethylphenyl)guanidine hydrochloride], the Ki was 29.5 nM.

On to `N=C(Nc1cc(C(F)(F)F)ccc1Cl)Nc1cccc2ccccc12` [Compd. No. 40 (Table I), N-(1-Naphthyl)-N'-(2-chloro-5-trifluoromethylphenyl)guanidine hydrochloride], for which the Ki is 29.6 nM.

With `N=C(Nc1cc(C(F)(F)F)ccc1Br)Nc1cccc2ccccc12` [Compd. No. 41 (Table I), N-(1-Naphthyl)-N'-(2-bromo-5-trifluoromethylphenyl)guanidine hydrochloride], the inhibition constant (Ki) came to 39.3 nM.

As to `CSc1ccc(C(F)(F)F)cc1NC(=N)Nc1cccc2ccccc12` [Compd. No. 42 (Table I), N-(1-Naphthyl)-N'-(2-thiomethyl-5-trifluoromethylphenyl)guanidine hydrochloride], the inhibition constant Ki was determined as 131 nM.

As to `CCc1ccc(Cl)c(NC(=N)Nc2cccc3ccccc23)c1` [Compd. No. 44 (Table I), N-(1-Naphthyl)-N'-(2-chloro-5-ethylphenyl)guanidine hydrochloride], the inhibition constant (Ki) came to 15.8 nM.

`CCc1cccc(NC(=N)Nc2cccc3ccccc23)c1` [Compd. No. 45 (Table I)]: the Ki amounted to 30 nM.

Take `CSc1ccc(Cl)c(NC(=N)Nc2cccc3ccccc23)c1` [Compd. No. 46 (Table I), N-(1-Naphthyl)-N'-(2-chloro-5-thiomethylphenyl)guanidine hydrochloride]: the inhibition constant (Ki) is 33.2 nM.

As to `CSc1cccc(NC(=N)Nc2cccc3ccccc23)c1` [Compd. No. 47 (Table I)], the inhibition constant (Ki) turned out to be 95.3 nM.

On to `Cc1ccc(Cl)c(NC(=N)Nc2cccc3cccnc23)c1` [Compd. No. 48 (Table I), N-(8-Quinolinyl)-N'-(2-chloro-5-methylphenyl)guanidine hydrochloride], for which the inhibition constant Ki stood at 24.4 nM.

For `CN(C(=N)Nc1cccc2ccccc12)c1cc(Cl)ccc1Cl` [Compd. No. 50 (Table I), N-(1-Naphthyl)-N'(2,5-dichlorophenyl)-N'-methylguanidine hydrochloride], the Ki is 47.6 nM.

With `CN(C(=N)Nc1cccc2ccccc12)c1cccc(Cl)c1` [Compd. No. 52 (Table I)], the inhibitory constant (Ki) is 82.3 nM.

Turning to `CN(C(=N)Nc1cccc2ccccc12)c1cccc(Br)c1` [Compd. No. 53 (Table I)], the inhibition constant (Ki) turned out to be 41.6 nM.

As for `Cc1ccc(C)c(N(C)C(=N)Nc2cccc3ccccc23)c1` [Compd. No. 54 (Table I), N-(1-Naphthyl)-N'-(2,5-dimethylphenyl)-N'-methylguanidine hydrochloride], the Ki was 60.5 nM.

`Cc1ccc(Cl)c(N(C)C(=N)Nc2cccc3ccccc23)c1` [Compd. No. 55 (Table I), N-(1-Naphthyl)-N'-(2-chloro-5-methylphenyl)-N'-methylguanidine hydrochloride]: the Ki was determined as 31.6 nM.

In the case of `CCc1ccc(Cl)c(N(C)C(=N)Nc2cccc3ccccc23)c1` [Compd. No. 57 (Table I), N-(1-Naphthyl)-N'-(2-chloro-5-ethylphenyl)-N'-methylguanidine hydrochloride], the Ki is 25.2 nM.

On to `CCc1cccc(N(C)C(=N)Nc2cccc3ccccc23)c1` [Compd. No. 58 (Table I)], for which the Ki came out at 28.8 nM.

For the molecule `CCc1cccc(N(C)C(=N)Nc2cc(SC)ccc2Br)c1` [Compd. No. 59 (Table I)], the inhibitory constant (Ki) amounted to 2.48 nM.

Take `CSc1cccc(N(C)C(=N)Nc2cc(SC)ccc2Cl)c1` [Compd. No. 60 (Table I), N-(3-Methylthiophenyl)-N-methyl-N'-(2-chloro-5-methylthiophenyl)guanidine hydrochloride]: the Ki amounted to 1.84 nM.

Consider `CCc1ccc(Cl)c(NC(=N)N(C)c2cccc(SC)c2)c1` [Compd. No. 61 (Table I), N-(3-Methylthiophenyl)-N-methyl-N'-(2-chloro-5-ethylphenyl)guanidine hydrochloride], for which the inhibition constant Ki worked out at 9.69 nM.
